This is an account of results in the supplement of paper PMC10600219.

Counter-ions that a name gives are not always drawn. The full ranking holds about 2,800 compounds; the median of “cell viability relative to vehicle” is about 0.98, and the lowest 2% start at about 0.45. This is one part of the list.

For this assay, the system named is NCI-H2228 alectinib-DTP. Nature of the assay: cell viability relative to vehicle (fraction of vehicle); NCI-H2228 is an ALK-positive lung cancer line and DTP means drug-tolerant persister; higher = less growth inhibition. As to conditions: 100 nM; treatment time 6 days. In outline:
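NCI-H2228 parental cells and drug-tolerant persister cells were plated in 384-well plates; the persisters had been generated with 1000 nM of a targeted drug over 13 days. One day later, the 3114-agent TargetMol anti-cancer compound library was added at 100 nM, with DMSO serving as vehicle. ATP was measured 6 days after that using the CellTiter-Glo 3D Cell Viability Assay. Values are cell viability expressed relative to vehicle-treated cells.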
As to `CN1CCc2c(c3ccccc3n2Cc2ccccc2)C1` [Mebhydrolin napadisylate], the cell viability is 1.06.

The compound `Oc1ccc([C@H]2COc3cc(O)ccc3C2)cc1` [Equol] registered a cell viability of 1.05.

Take `O=c1cc(-c2cccc3c2Sc2ccccc2S3)oc(N2CCOCC2)c1`: the cell viability came to 0.858.

`Cc1[nH]c2ccccc2c1CCNC(=O)c1cccs1` showed a cell viability of 0.919.

`N=C(N)c1ccc(OCCCCCOc2ccc(C(=N)N)cc2)cc1` [Pentamidine isethionate] gave a cell viability of 1.

For the compound `O=C(OC[C@H]1O[C@@H](OC(=O)c2cc(O)c(O)c(OC(=O)c3cc(O)c(O)c(O)c3)c2)[C@H](OC(=O)c2cc(O)c(O)c(OC(=O)c3cc(O)c(O)c(O)c3)c2)[C@@H](OC(=O)c2cc(O)c(O)c(OC(=O)c3cc(O)c(O)c(O)c3)c2)[C@@H]1OC(=O)c1cc(O)c(O)c(OC(=O)c2cc(O)c(O)c(O)c2)c1)c1cc(O)c(O)c(OC(=O)c2cc(O)c(O)c(O)c2)c1` [Tannic acid], the cell viability turned out to be 0.857.

As to `CC(C)n1cnc2c(NCc3ccccc3)nc(NCCCO)nc21` [Bohemine], the cell viability was 0.951.

Regarding `N#Cc1c(O)c2c(-c3ccc(-c4ccccc4O)cc3)csc2[nH]c1=O`, the cell viability was found to be 0.954.

`CCCCC(=O)O[C@H]1CC[C@H]2[C@@H]3CCc4cc(O)ccc4[C@H]3CC[C@]12C` [Estradiol valerate] gave a cell viability of 1.15.

In turn, `Cc1nc2ccc(-n3ncc(C(=O)c4cc5ccccc5[nH]4)c3N)cc2[nH]1` displayed a cell viability of 0.828.

For `CC(=O)O[C@@]12CO[C@@H]1C[C@H](O)[C@@]1(C)C(=O)[C@H](O)C3=C(C)[C@@H](OC(=O)[C@H](O)[C@@H](NC(=O)OC(C)(C)C)c4ccccc4)C[C@@](O)([C@@H](OC(=O)c4ccccc4)[C@H]21)C3(C)C` [Docetaxel trihydrate], the cell viability turned out to be 0.462.

As to `CC(=O)O[C@@]12CO[C@@H]1C[C@H](O)[C@@]1(C)C(=O)[C@H](O)C3=C(C)[C@@H](OC(=O)[C@H](O)[C@@H](NC(=O)OC(C)(C)C)c4ccccc4)C[C@@](O)([C@@H](OC(=O)c4ccccc4)[C@H]21)C3(C)C` [Docetaxel], the cell viability is 0.508.

Regarding `CC(=O)OC(CC(C)C1=C2C[C@H](O)C3[C@@]4(C)CCC(=O)C(C)(C)C4CC[C@]3(C)[C@@]2(C)CC1)C1OC1(C)C` (stereo not given in full) [Alisol B 23-acetate], the cell viability was determined as 1.05.

The compound `O=C(/C=C/c1ccccc1)NC(NC(=S)Nc1cccc2cccnc12)C(Cl)(Cl)Cl` (stereo not given) [Salubrinal] displayed a cell viability of 0.95.

Take `C=C(C)[C@@H]1CC[C@]2(C(=O)O)CC[C@]3(C)[C@H](CC[C@@H]4[C@@]5(C)CCC(=O)C(C)(C)[C@@H]5CC[C@]43C)[C@@H]12` [Betulonic acid]: the cell viability was found to be 1.08.

Compound `CO[C@H]1C[C@@H]2CC[C@@H](C)[C@@](O)(O2)C(=O)C(=O)N2CCCC[C@H]2C(=O)O[C@H]([C@H](C)C[C@@H]2CC[C@@H](OCCO)[C@H](OC)C2)CC(=O)[C@H](C)/C=C(\C)[C@@H](O)[C@@H](OC)C(=O)[C@H](C)C[C@H](C)/C=C/C=C/C=C/1C` [Everolimus] yielded a cell viability of 0.74.

For the compound `Fc1ccc(Cl)cc1-c1nc(Nc2ccncc2)c2nccnc2n1`, the cell viability came to 1.14.

In turn, `C=CC1=C(C)c2cc3[nH]c(cc4nc(cc5[nH]c(cc1n2)c(C)c5CCC(=O)O)C(CCC(=O)O)=C4C)c(C)c3C=C` [Protoporphyrin IX] came in with a cell viability of 0.979.

The compound `CC1CNc2c(cccc2S(=O)(=O)N[C@@H](CCCNC(=N)N)C(=O)N2CC[C@@H](C)C[C@@H]2C(=O)O)C1` (stereo not given in full) [Argatroban] came in with a cell viability of 1.13.

The compound `CN(C)CCN(Cc1ccccc1)c1ccccn1` [Tripelennamine hydrochloride] registered a cell viability of 1.06.

In turn, `COc1ccccc1N1CCN(CCN(C(=O)C2CCCCC2)c2ccccn2)CC1` returned a cell viability of 1.08.

Take `Nc1ccn([C@@H]2O[C@H](CO)[C@@H](O)C2(F)F)c(=O)n1` [Gemcitabine HCl]: the cell viability is 0.778.

For `Nc1ccn([C@@H]2O[C@H](CO)[C@@H](O)C2(F)F)c(=O)n1` [Gemcitabine], the cell viability amounted to 0.678.

With `Cc1cc(/C=C2/SC(=S)NC2=O)c(C)n1-c1cccnc1` [Optovin], the cell viability came out at 0.918.

Consider `C[n+]1cc2c3c(ccc2c2ccc4cc5c(cc4c21)OCO5)OCO3` [Sanguinarine chloride], for which the cell viability came out at 1.01.

Regarding `C[C@@H](NC(=O)c1ncnc(N)c1Cl)c1ncc(C(=O)Nc2cc(C(F)(F)F)c(Cl)cn2)s1`, the cell viability is 1.07.

The compound `C=CC(=O)N1CC[C@H](n2nc(C#Cc3cc(OC)cc(OC)c3)c3c(N)ncnc32)C1` returned a cell viability of 0.715.

The compound `Nc1ncnc2c1ncn2[C@@H]1O[C@H](CO)[C@@H](O)[C@H]1O` [Adenosine] showed a cell viability of 0.991.

Consider `CC(C)=CCC[C@](C)(O[C@@H]1O[C@H](CO)[C@@H](O)[C@H](O)[C@H]1O)[C@H]1CC[C@]2(C)[C@@H]1[C@H](O)C[C@@H]1[C@@]3(C)CC[C@H](O)C(C)(C)[C@@H]3[C@@H](O)C[C@]12C` [Ginsenoside F1], for which the cell viability worked out at 1.12.

Turning to `O=C1C[C@@H](c2ccc(O)cc2)Oc2cc(O)ccc21` [Liquiritigenin], the cell viability was 0.852.

For the compound `COc1ccc(S(=O)(=O)Nc2cc(-c3c(O)ccc4ccccc34)c(O)c3ccccc23)cc1`, the cell viability turned out to be 0.845.

The compound `O=C1Nc2ccccc2/C1=C1/Nc2ccccc2C1=O` [Indirubin] showed a cell viability of 0.944.

Take `N=C(N)NC(=O)Cc1c(Cl)cccc1Cl` [Guanfacine hydrochloride]: the cell viability came out at 0.913.

Compound `O=C(O)C(O)Cc1ccc(O)c(O)c1` (stereo not given) [Sodium Danshensu] came in with a cell viability of 0.971.

`COc1cc(C(=O)O)ccc1NC(=O)[C@@H]1N[C@@H](CC(C)(C)C)[C@](C#N)(c2ccc(Cl)cc2F)[C@H]1c1cccc(Cl)c1F` [Idasanutlin]: the cell viability was determined as 0.996.

With `CC1(C)CCC(C)(C)c2cc(NC(=O)c3ccc(C(=O)O)cc3)ccc21` [Tamibarotene], the cell viability amounted to 0.771.

Regarding `O=C(NCC(=O)N1CC[C@H](N[C@H]2CC[C@@](O)(c3ccc(-c4ncccn4)cn3)CC2)C1)c1cccc(C(F)(F)F)c1`, the cell viability was found to be 1.02.

In turn, `C=C1C[C@@]23CC[C@H]4[C@@](C)(CCC[C@@]4(C)C(=O)O)[C@@H]2CC[C@]1(O)C3` [Steviol] showed a cell viability of 1.05.

The compound `Oc1ccc(OC2CCCCO2)cc1` (stereo not given) [Deoxyarbutin] displayed a cell viability of 1.03.

Consider `Nc1cccc2c1C(=O)N(C1CCC(=O)NC1=O)C2=O` (stereo not given) [Pomalidomide], for which the cell viability is 1.04.
